# The supplement of paper PMC8728848
# This is one part of the list.
# Assays:
# Experiment in all cases: glycan array binding signal (z-score within array); higher = stronger binding
# Conditions in all cases: glycan notation: IUPAC condensed, linker removed
# [1] = molecular target: Fuc(a1-2)[GalNAc(a1-3)]Gal(b1-3)GalNAc(a1-3)[Fuc(a1-2)]Gal(b1-4)GlcNAc
# Method in brief: (§1)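 Columns mapping to the same glycan were averaged after glycan names were converted to IUPAC-condensed notation. The data come from 3228 arrays in the Consortium for Functional Glycomics database, limited to those with an available protein sequence. Binding is reported as a within-array Z-score averaged across arrays of one protein sequence and across linkers.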
# [2] = molecular target: Fuc(a1-2)[GalNAc(a1-3)]Gal(b1-3)GalNAc(b1-3)Gal(a1-4)Gal(b1-4)Glc
# Method in brief: as §1
# [3] = molecular target: Fuc(a1-2)[GalNAc(a1-3)]Gal(b1-3)GlcNAc
# Method in brief: as §1
# [4] = molecular target: Fuc(a1-2)[GalNAc(a1-3)]Gal(b1-3)GlcNAc(b1-2)Man(a1-3)[Fuc(a1-2)[GalNAc(a1-3)]Gal(b1-3)GlcNAc(b1-2)Man(a1-6)]Man(b1-4)GlcNAc(b1-4)GlcNAc
# Method in brief: as §1
# [5] = molecular target: Fuc(a1-2)[GalNAc(a1-3)]Gal(b1-3)GlcNAc(b1-2)Man(a1-3)[Fuc(a1-2)[GalNAc(a1-3)]Gal(b1-3)GlcNAc(b1-2)Man(a1-6)]Man(b1-4)GlcNAc(b1-4)[Fuc(a1-6)]GlcNAc
# Method in brief: as §1
# [6] = molecular target: Fuc(a1-2)[GalNAc(a1-3)]Gal(b1-3)GlcNAc(b1-3)Gal(b1-4)Glc
# Method in brief: as §1
# [7] = molecular target: Fuc(a1-2)[GalNAc(a1-3)]Gal(b1-3)GlcNAc(b1-3)GalNAc
# Method in brief: as §1
# [8] = molecular target: Fuc(a1-2)[GalNAc(a1-3)]Gal(b1-3)GlcNAc(b1-6)GalNAc
# Method in brief: as §1
# [9] = molecular target: Fuc(a1-2)[GalNAc(a1-3)]Gal(b1-3)[Fuc(a1-4)]GlcNAc(b1-3)Gal(b1-4)Glc
# Method in brief: as §1
# [10] = molecular target: Fuc(a1-2)[GalNAc(a1-3)]Gal(b1-4)Glc
# Method in brief: as §1
# [11] = molecular target: Fuc(a1-2)[GalNAc(a1-3)]Gal(b1-4)GlcNAc
# Method in brief: as §1
# [12] = molecular target: Fuc(a1-2)[GalNAc(a1-3)]Gal(b1-4)GlcNAc(b1-2)Man
# Method in brief: as §1
# [13] = molecular target: Fuc(a1-2)[GalNAc(a1-3)]Gal(b1-4)GlcNAc(b1-2)Man(a1-3)[Fuc(a1-2)[GalNAc(a1-3)]Gal(b1-4)GlcNAc(b1-2)Man(a1-6)]Man(b1-4)GlcNAc(b1-4)GlcNAc
# Method in brief: as §1
# [14] = molecular target: Fuc(a1-2)[GalNAc(a1-3)]Gal(b1-4)GlcNAc(b1-2)Man(a1-3)[Fuc(a1-2)[GalNAc(a1-3)]Gal(b1-4)GlcNAc(b1-2)Man(a1-6)]Man(b1-4)GlcNAc(b1-4)[Fuc(a1-6)]GlcNAc
# Method in brief: as §1
# [15] = molecular target: Fuc(a1-2)[GalNAc(a1-3)]Gal(b1-4)GlcNAc(b1-3)Gal(b1-4)GlcNAc
# Method in brief: as §1
# [16] = molecular target: Fuc(a1-2)[GalNAc(a1-3)]Gal(b1-4)GlcNAc(b1-3)Gal(b1-4)GlcNAc(b1-3)Gal(b1-4)GlcNAc
# Method in brief: as §1
# [17] = molecular target: Fuc(a1-2)[GalNAc(a1-3)]Gal(b1-4)GlcNAc(b1-3)GalNAc
# Method in brief: as §1
# [18] = molecular target: Fuc(a1-2)[GalNAc(a1-3)]Gal(b1-4)GlcNAc(b1-3)[Fuc(a1-2)[GalNAc(a1-3)]Gal(b1-4)GlcNAc(b1-6)]GalNAc
# Method in brief: as §1
# [19] = molecular target: Fuc(a1-2)[GalNAc(a1-3)]Gal(b1-4)GlcNAc(b1-6)GalNAc
# Method in brief: as §1
# [20] = molecular target: Fuc(a1-2)[GalNAc(a1-3)]Gal(b1-4)[Fuc(a1-3)]GlcNAc
# Method in brief: as §1
# [21] = molecular target: Fuc(a1-2)[GalNAc(a1-3)]Gal(b1-4)[Fuc(a1-3)]GlcNAc(b1-3)GalNAc
# Method in brief: as §1
# [22] = molecular target: Fuc(a1-2)[GalNAc(a1-4)]Gal(b1-4)GlcNAc
# Method in brief: as §1
# [23] = molecular target: Fuc(a1-2)[GalNAc(b1-3)]Gal
# Method in brief: as §1
# [24] = molecular target: Fuc(a1-2)[Neu5Ac(bond)]Gal(b1-3)GlcNAc(b1-3)Gal(b1-4)Glc
# Method in brief: as §1
# Fuc(a1-3)GlcNAc = molecular target: Fuc(a1-3)GlcNAc
# Method in brief: as §1
# Fuc(a1-3)GlcNAc6S = molecular target: Fuc(a1-3)GlcNAc6S
# Method in brief: as §1
# [25] = molecular target: Fuc(a1-3)[3dGal(b1-4)]Glc
# Method in brief: as §1
# [26] = molecular target: Fuc(a1-3)[3dGal(b1-4)]GlcNAc(b1-3)Gal
# Method in brief: as §1
# [27] = molecular target: Fuc(a1-3)[Gal(b1-4)]Glc6S
# Method in brief: as §1
# [28] = molecular target: Fuc(a1-3)[Gal(b1-4)]GlcNAc
# Method in brief: as §1
# [29] = molecular target: Fuc(a1-3)[Gal(b1-4)]GlcNAc(b1-2)Man
# Method in brief: as §1
# [30] = molecular target: Fuc(a1-3)[Gal(b1-4)]GlcNAc(b1-2)Man(a1-3)[Fuc(a1-3)[Gal(b1-4)]GlcNAc(b1-2)Man(a1-6)]Man(b1-4)GlcNAc(b1-4)GlcNAc
# Method in brief: as §1
# [31] = molecular target: Fuc(a1-3)[Gal(b1-4)]GlcNAc(b1-2)Man(a1-3)[Fuc(a1-3)[Gal(b1-4)]GlcNAc(b1-2)Man(a1-6)]Man(b1-4)GlcNAc(b1-4)[Fuc(a1-6)]GlcNAc
# Method in brief: as §1
# [32] = molecular target: Fuc(a1-3)[Gal(b1-4)]GlcNAc(b1-3)Gal(b1-3)[Fuc(a1-4)]GlcNAc
# Method in brief: as §1
# [33] = molecular target: Fuc(a1-3)[Gal(b1-4)]GlcNAc(b1-3)Gal(b1-4)Glc
# Method in brief: as §1
# [34] = molecular target: Fuc(a1-3)[Gal(b1-4)]GlcNAc(b1-3)Gal(b1-4)[Fuc(a1-3)]Glc
# Method in brief: as §1
# [35] = molecular target: Fuc(a1-3)[Gal(b1-4)]GlcNAc(b1-3)Gal(b1-4)[Fuc(a1-3)]GlcNAc
# Method in brief: as §1
# [36] = molecular target: Fuc(a1-3)[Gal(b1-4)]GlcNAc(b1-3)Gal(b1-4)[Fuc(a1-3)]GlcNAc(b1-3)Gal(b1-4)[Fuc(a1-3)]GlcNAc
# Method in brief: as §1
# [37] = molecular target: Fuc(a1-3)[Gal(b1-4)]GlcNAc(b1-3)GalNAc
# Method in brief: as §1
# [38] = molecular target: Fuc(a1-3)[Gal(b1-4)]GlcNAc(b1-3)[Fuc(a1-2)]Gal(b1-4)Glc
# Method in brief: as §1
# [39] = molecular target: Fuc(a1-3)[Gal(b1-4)]GlcNAc(b1-3)[Fuc(a1-3)[Gal(b1-4)]GlcNAc(b1-6)]Gal(b1-4)Glc
# Method in brief: as §1
# [40] = molecular target: Fuc(a1-3)[Gal(b1-4)]GlcNAc(b1-4)Gal(b1-4)[Fuc(a1-3)]GlcNAc
# Method in brief: as §1
# [41] = molecular target: Fuc(a1-3)[Gal(b1-4)]GlcNAc(b1-4)Gal(b1-4)[Fuc(a1-3)]GlcNAc(b1-4)Gal(b1-4)[Fuc(a1-3)]GlcNAc
# Method in brief: as §1
# [42] = molecular target: Fuc(a1-3)[Gal(b1-4)]GlcNAc(b1-6)GalNAc
# Method in brief: as §1
# [43] = molecular target: Fuc(a1-3)[Gal(b1-4)]GlcNAc(b1-6)[Gal(b1-3)GlcNAc(b1-3)]Gal(b1-4)Glc
# Method in brief: as §1
binder,measurement,setting,value
"CLEC5A (Homo sapiens), Q9NY25 (protein) MNWHMIISGLIVVVLKVVGMTLFLLYFPQIFNKSNDGFTTTRSYGTVSQIFGSSSPSPNGFITTRSYGTVCPKDWEFYQARCFFLSTSESSWNESRDFCKGKGSTLAIVNTPEKLKFLQDITDAEKYFIGLIYHREEKRWRWINNSVFNGNVTNQNQNFNCATIGLTKTFDAASCDISYRRICEKNAK",glycan array binding signal (z-score),[1],0.024
same,glycan array binding signal (z-score),[2],-0.199
same,glycan array binding signal (z-score),[3],-0.185
same,glycan array binding signal (z-score),[4],-0.158
same,glycan array binding signal (z-score),[5],-0.21
same,glycan array binding signal (z-score),[6],-0.32
same,glycan array binding signal (z-score),[7],-0.026
same,glycan array binding signal (z-score),[8],-0.149
same,glycan array binding signal (z-score),[9],-0.32
same,glycan array binding signal (z-score),[10],0.033
same,glycan array binding signal (z-score),[11],-0.177
same,glycan array binding signal (z-score),[12],-0.218
same,glycan array binding signal (z-score),[13],0.322
same,glycan array binding signal (z-score),[14],0.189
same,glycan array binding signal (z-score),[15],0.56
same,glycan array binding signal (z-score),[16],-0.237
same,glycan array binding signal (z-score),[17],-0.193
same,glycan array binding signal (z-score),[18],0.006
same,glycan array binding signal (z-score),[19],-0.068
same,glycan array binding signal (z-score),[20],-0.006
same,glycan array binding signal (z-score),[21],2.38
same,glycan array binding signal (z-score),[22],-0.085
same,glycan array binding signal (z-score),[23],-0.234
same,glycan array binding signal (z-score),[24],-0.32
same,glycan array binding signal (z-score),Fuc(a1-3)GlcNAc,-0.109
same,glycan array binding signal (z-score),Fuc(a1-3)GlcNAc6S,-0.32
same,glycan array binding signal (z-score),[25],-0.32
same,glycan array binding signal (z-score),[26],0.644
same,glycan array binding signal (z-score),[27],0.031
same,glycan array binding signal (z-score),[28],-0.028
same,glycan array binding signal (z-score),[29],-0.15
same,glycan array binding signal (z-score),[30],-0.446
same,glycan array binding signal (z-score),[31],-0.058
same,glycan array binding signal (z-score),[32],-0.411
same,glycan array binding signal (z-score),[33],-0.031
same,glycan array binding signal (z-score),[34],-0.32
same,glycan array binding signal (z-score),[35],0.024
same,glycan array binding signal (z-score),[36],-0.241
same,glycan array binding signal (z-score),[37],0.155
same,glycan array binding signal (z-score),[38],-0.32
same,glycan array binding signal (z-score),[39],-0.32
same,glycan array binding signal (z-score),[40],0.685
same,glycan array binding signal (z-score),[41],-0.282
same,glycan array binding signal (z-score),[42],0.142
same,glycan array binding signal (z-score),[43],-0.158
